# Hit rate of the full screen: of about 110,000 compounds, about 40 (0.04%) were called active. The shares of active, inactive and inconclusive entries below differ from those in the screen. The call rests on the fitted dose curve; in most records, active means well fitted curve in the direction sought with a large enough effect in the signal ratio (not every such curve was filed as active); inconclusive means small, poorly fitted or top-dose-only effect, or a change in a side signal; inactive means flat fitted curve, though single readings scatter; the % refers to the signal ratio. A potency beside an inconclusive call is a rough fit, not a confirmed value.
# Experiment: IkB Signaling
# Settings: ABC-DLBCL IkBa-CBG/CBR dual luciferase ratio (green luciferase fused to IkBa over red control in OCI-Ly3 lymphoma cells), 4 h, scaled: untreated 0%
# Description: NIH Molecular Libraries Screening Centers Network [MLSCN]
# NIH Chemical Genomics Center [NCGC]
# Nuclear factor kappa-B (NF-kappa-B) plays an important role in normal B cell development and survival. Diffuse large B cell lymphoma (DLBCL) is the most commonly observed type of non-Hodgkin's lymphoma. Gene expression analysis has identified an activated B cell-like subtype of DLBCL (ABC-DLBCL) which expresses known NF-kappa-B target genes. […] However, targets upstream of IKK have been largely unexplored and so nodes upstream of IKK in the NF-kappa-B pathway remain untested due to the lack of chemical probes.
# A cell-sensor assay for I-kappa-B-alpha stabilization was developed with NIH investigator Dr. R. Eric Davis in Dr. Louis M. Staudt's laboratory. The assay uses green (CBG68) and red (CBR) emitting beetle luciferases [Chroma-Glo(TM) developed by Promega Corp.] where the green luciferase is fused to I-kappa-B-alpha and the red luciferase is present in its native state. Both luciferase genes are stably present in the OCI-Ly3 human ABC DLBCL cell line, but their expression is under the control of tetracycline-inducible promoters. Following the addition of doxycycline to induce expression of the luciferases, the green luminescence in control cultures rises only slowly because the CBG fusion partner I-kappa-B-alpha is targeted by IKK activity for rapid degradation. In contrast, green luminescence rises rapidly in the presence of proteasome inhibitors or IKK inhibitors. The rise in red luminescence of CBR is not affected by proteasome or IKK inhibitors, and serves as normalization for cell number and nonspecific effects. Compounds were screened as a concentration-titration series that ranged from 57 uM to 0.7 nM.
# NCGC Assay Protocol Summary:
# Cells were seeded in 1536-well plates at 5000 cells/3ul in IMDM medium containing 0.5% FBS, w/o phenol red, L-glutamine, 25 mM HEPES, 3 mg/ml sodium bicarbonate. After centrifugation for 1 min. at 1000 rpm, 23 nl of compounds or DMSO were delivered to each well using a pin tool. Then 1ul 80ng/ml doxycycline was dispensed into white solid 1536-well plates and the plates were incubated at 37C/5% C02 in a cell incubator for 4 hrs. Then 4 ul Chroma-Glo luminescent substrate mix (Promega) was added to each well. The plate was incubated at R.T. for 10-15 min. The plates were measured on a ViewLux plate reader for green luminescence (540/20 nm filter) and red luminescence (618/8 nm filter). The green and red luminescent signals were corrected for red and green luminescence filter overlap using previously determined filter calibration constants (determined using the procedure outlined in the Promega Technical Manual). The %Activity was determined from the ratio of corrected green/red luminescent values. Green luminescent and ratio %Activity was determined by normalizing to the difference in signal between basal cells (0% Activity) and cells incubated with 10 uM of the proteasome inhibitor MG-132 (100% Activity). Red luminescent %Activity was normalized to the difference between red luminesence in basal cells (0%Activity) and zero luminescence (-100% Activity).
# Concentration-response curves were fitted to the signals arising from the green luminescence (I-kappa-B-alpha-luciferase fusion; IkB-luc) and the red luminescence (unfused luciferase; luc) as well as the calculated ratio. The concentration-effect curves were then classified based on curve quality (r2), response magnitude and degree of measured activity. Compounds were then categorized based on their concentration-response curves for all three datasets (Ikb-luc, luc and ratio).
# Keywords: IKK, I-kappa-B, IkB, IkBa, cytotoxicity, luminescence, MLSMR, MLSCN, NIH Roadmap, qHTS, NCGC
# [1] = IkBa stabilization activation: at 57.1 µM (top of the series), proteasome inhibitor 100% unless noted
# Potency means the concentration at half of the fitted maximal effect.
compound,measurement,setting,value
C=CCn1c(SCC(=O)N2CCOCC2)nc2scc(-c3ccco3)c2c1=O,Potency,[1],"inconclusive: 6.31 µM [signal inhibitor, full curve]"
COc1ccc(C(=O)Nc2ccccc2C(N)=O)cc1,IkBa stabilization activation,[1],inconclusive: 12.8% [signal inhibitor]
CCOc1ccc(CC(=O)Nc2ccc3c(c2)N(C)C(=O)c2ccccc2S3)cc1OCC,IkBa stabilization activation,[1],inconclusive: -2.89% [signal inhibitor]
Cc1oc(-c2ccccc2F)nc1CS(=O)(=O)CC(=O)N1CCOCC1,IkBa stabilization activation,[1],inactive
CCc1ccc(OCC(=O)N(Cc2ccc(C)cc2)Cc2ccco2)cc1,IkBa stabilization activation,[1],inconclusive: 2.03% [signal inhibitor]
Cc1nn(-c2ccc(Cl)cc2)c2sc(C(=O)N3CCN(C(=O)c4ccco4)CC3)cc12,IkBa stabilization activation,[1],inactive
Cc1cccc(C)c1-n1ncc(C(=O)NCc2ccc3c(c2)OCO3)c1C1CCN(C(=O)OC(C)(C)C)CC1,IkBa stabilization activation,[1],inconclusive: 1.47% [signal inhibitor]
CCCCN(C)CCCNC(=O)c1cc(=O)[nH]c2ccc(S(=O)(=O)N3CCCCC3)cc12,IkBa stabilization activation,[1],inactive
CCOC(=O)CSC1=C(C#N)C(c2ccco2)C(C(=O)Nc2cccc(C(F)(F)F)c2)=C(C)N1 (configuration not stated),IkBa stabilization activation,[1],inconclusive: 6.65% [signal inhibitor]
CCOC(=O)C1=C(C)NC(SCc2cc(=O)[nH][nH]2)=C(C#N)C1c1cccs1 (configuration not stated),IkBa stabilization activation,[1],inconclusive: 3.18% [signal inhibitor]
O[C@H](CN1CCN(c2cccc(Cl)c2)CC1)C(c1ccccc1)c1ccccc1,IkBa stabilization activation,[1],inconclusive: 0.588% [signal inhibitor]
same,IkBa stabilization activation,"at 57.1 µM (top of the series), proteasome inhibitor 100%",inactive: -1.93%
CCCC[C@H](CC)CN=C(N)NC(N)=NCCCCCCN=C(N)NC(N)=NC[C@@H](CC)CCCC,IkBa stabilization activation,[1],inactive
COc1cc(NC(=O)c2cccc3c2C(=O)N(Cc2cccnc2)C3)cc(OC)c1OC,IkBa stabilization activation,[1],inactive
CCOc1ccc(-n2cc(C(=O)Nc3ccccc3OCC)c3cc(OC)c(OC)cc3c2=O)cc1,IkBa stabilization activation,[1],inconclusive: 1.85% [signal inhibitor]
COc1cc2ccccc2cc1C(=O)N1CCN(c2nc3c(C)cc(C)cc3s2)CC1,IkBa stabilization activation,[1],inactive
CCOC(=O)c1c(NC(=O)CS(=O)(=O)c2ccc(C)cc2)sc2c1CCC(C)C2 (configuration not stated),IkBa stabilization activation,[1],inconclusive: -2.49% [signal inhibitor]
CC1CCN(C(=O)Cn2cc(SCc3cccc(F)c3)c3ccccc32)CC1,IkBa stabilization activation,[1],inconclusive: 0.118% [signal inhibitor]
O=C(COc1ccccc1F)Nc1ccccc1OCc1cc(=O)n2ccccc2n1,IkBa stabilization activation,[1],inactive
CC1CCN(C(=O)Cn2cc(SCc3ccccc3)c3ccccc32)CC1,IkBa stabilization activation,[1],inconclusive: 2.46% [signal inhibitor]
CCCc1nnc(N2C(=O)c3oc4ccc(F)cc4c(=O)c3C2c2ccc(C(=O)OC)cc2)s1 (configuration not stated),IkBa stabilization activation,[1],inconclusive: 8.24% [signal inhibitor]
COc1ccc(-n2c(=O)c(-c3cccs3)nc3cnc(Nc4ccccc4)nc32)cc1,IkBa stabilization activation,[1],"inactive: -1.12% [at 11.4 µM, scaled: untreated 0%, proteasome inhibitor 100%]"
CCCn1cnc2c(SCc3ccc(Cl)cc3)nc(N)nc21,IkBa stabilization activation,[1],"inactive: -0.943% [at 11.4 µM, scaled: untreated 0%, proteasome inhibitor 100%]"
O=C(c1ccco1)N1CCN(S(=O)(=O)c2ccc(C3CCCCC3)cc2)CC1,IkBa stabilization activation,[1],inactive
Cc1ccc(-c2cc(C(=O)Nc3c(C(=O)c4ccccc4)oc4ccccc34)no2)cc1F,IkBa stabilization activation,[1],inconclusive: 0.313% [signal inhibitor]
CC(C)CN1C(=O)c2ccc(C(=O)Nc3ccncc3)cc2C1=O,IkBa stabilization activation,[1],inactive
Cc1ccc(Cc2nc3ccccc3nc2SCC(=O)Nc2cccc(C(F)(F)F)c2)cc1,IkBa stabilization activation,[1],inconclusive: 4.58% [signal inhibitor]
CCNC(=O)NC(=O)COc1ccccc1C#N,Potency,[1],"inconclusive: 25.1 µM [signal inhibitor, partial curve]"
O=C(CN1CCSc2ccccc21)N1CCN(c2cccc(Cl)c2)CC1,IkBa stabilization activation,[1],inactive
O=c1c2ccccc2nnn1CSc1nnc(COc2ccc(Cl)cc2)n1Cc1ccco1,IkBa stabilization activation,[1],inconclusive: -3.63% [signal inhibitor]
Cc1ccc(-n2ncc3c(NC4CCCCC4)ncnc32)cc1,IkBa stabilization activation,[1],inconclusive: 0.653% [signal inhibitor]
O=C(Nc1ccc(N2CCCCC2)c(Cl)c1)c1ncn[nH]1,IkBa stabilization activation,[1],inactive
Cc1ccc(C)c(NS(=O)(=O)c2ccc(NC(=O)c3ccco3)cc2)c1,Potency,[1],"inconclusive: 20 µM [rising, partial curve, poor fit]"
COc1ccccc1C(=O)N1CCN(c2nc3cc(C)c(C)cc3cc2C#N)CC1,IkBa stabilization activation,[1],inconclusive: -1.24% [signal inhibitor]
CC(C)(C)c1ccc(S(=O)(=O)NCc2nc3cccnc3n2Cc2ccccc2Cl)cc1,IkBa stabilization activation,[1],inconclusive: 4.94% [signal inhibitor]
O=S(=O)(c1ccccc1)N1CCC(c2ccncc2)CC1,IkBa stabilization activation,[1],inconclusive: -3.03% [signal inhibitor]
CSCCC=O,IkBa stabilization activation,[1],inactive
CCOc1ccc(CNC(=O)Cn2nc(C)c3nn(-c4ccc(Cl)cc4)c(C)c3c2=O)cc1OC,IkBa stabilization activation,[1],inconclusive: -0.425% [signal inhibitor]
O=C(c1ccco1)N1CCN(S(=O)(=O)c2ccc(S(=O)(=O)NC3CCCCC3)cc2)CC1,IkBa stabilization activation,[1],inactive
CCC(C)NC(=O)c1sc2nc(C)c(C(=O)Nc3ccc(C)cc3C)c(-c3ccc(Cl)cc3)c2c1N (configuration not stated),IkBa stabilization activation,[1],inconclusive: 5.74% [signal inhibitor]
COCCNC(=O)c1nn(-c2ccc(Cl)cc2)nc1CO,IkBa stabilization activation,[1],inactive
Cn1cnc(S(=O)(=O)N2CCC(C(=O)NCc3ccc(Cl)cc3)CC2)c1,IkBa stabilization activation,[1],inactive
O=C(CSc1ccccc1)NCc1ccc2c(c1)CCN2C(=O)c1ccc(F)cc1,IkBa stabilization activation,[1],inconclusive: -1.4% [signal inhibitor]
Cn1c(SCc2cnc(-c3ccccc3)s2)nnc1C1COc2ccccc2O1 (configuration not stated),IkBa stabilization activation,[1],inconclusive: 2.32% [signal inhibitor]
O=C(Cc1ccccc1)N(Cc1cccnc1)c1nc2ccc(F)cc2s1,IkBa stabilization activation,[1],inconclusive: 8.71% [signal inhibitor]
O=C(Nc1cccc2cccnc12)c1ccc(F)cc1,Potency,[1],inconclusive: 25.1 µM [signal inhibitor]
O=C(COc1ccc(S(=O)(=O)NC2CCCCC2)cc1)Nc1ccc2c(c1)OCCO2,IkBa stabilization activation,[1],inconclusive: 9.73% [signal inhibitor]
CCc1ccc2oc(-c3ccc(NC(=O)c4cc(OC)c(OC)c(OC)c4)cc3)nc2c1,IkBa stabilization activation,[1],inactive
Cc1ccccc1-c1nnc(C2CCN(S(=O)(=O)c3ccc(Cl)cc3)CC2)o1,IkBa stabilization activation,[1],inconclusive: 6.75% [signal inhibitor]
COc1ccc(C(O)C(CN2CCOCC2)c2ccccc2)cc1F (configuration not stated),IkBa stabilization activation,[1],inactive
Cc1nc(N2CCCC2)c2c(C(=O)N3CCN(c4cccc(C)c4C)CC3)c(C)oc2n1,IkBa stabilization activation,[1],inconclusive: 4.11% [signal inhibitor]
Cc1c(C(=O)NCCC2=CCCCC2)oc2ccc(S(=O)(=O)N3CCC4(CC3)OCCO4)cc12,IkBa stabilization activation,[1],inconclusive: 5.19% [signal inhibitor]
O=C(CSc1nc(-c2ccccc2)[nH]c1-c1ccccc1)Nc1ccc2c(c1)OCCO2,IkBa stabilization activation,[1],inconclusive: 2.65% [signal inhibitor]
O=C(Nc1cccnc1)c1cc(-c2ccco2)on1,Potency,[1],"inconclusive: 20 µM [signal inhibitor, partial curve]"
O=C(CN1CCN(c2ncccn2)CC1)Nc1ccccc1-n1cccc1,IkBa stabilization activation,[1],inconclusive: 2.94% [signal inhibitor]
CCCSCCCNC(=O)c1ccc2c(c1)nc1n2CCCCC1,IkBa stabilization activation,[1],inconclusive: 1.19% [signal inhibitor]
Cc1ccc(Nc2cc(C)c(C#N)c3nc4ccccc4n23)cc1Cl,IkBa stabilization activation,[1],inactive
CC(C)c1cc(-c2nc(-c3ccccc3)no2)n[nH]1,Potency,[1],"inconclusive: 31.6 µM [signal inhibitor, partial curve]"
COc1ccc(S(=O)(=O)N2CCN(Cc3ccc4c(c3)OCO4)CC2)cc1OC,IkBa stabilization activation,[1],inconclusive: 4.6% [signal inhibitor]
CN(CC(=O)Nc1ccccc1Cl)S(=O)(=O)c1ccc(C(=O)N2CCOCC2)s1,IkBa stabilization activation,[1],inconclusive: -1.71% [signal inhibitor]
CCc1ccc2c(c1)[C@]1(C(=O)N2)[C@@H]2C(=O)N(Cc3ccccc3)C(=O)[C@@H]2[C@@H]2CCCN21,IkBa stabilization activation,[1],inactive
Cc1cccc(-c2nnc3n2N=C(c2ccccc2Br)CS3)c1,IkBa stabilization activation,[1],inconclusive: 3.81% [signal inhibitor]
O=c1[nH]c(SCc2c(Cl)c(Cl)c(Cl)c(Cl)c2Cl)nc(=S)[nH]1,IkBa stabilization activation,[1],"inactive: 0.427% [at 11.4 µM, scaled: untreated 0%, proteasome inhibitor 100%]"
CCOC(=O)c1c(C)n(C)c2ccc(OCC(O)Cn3nc(C)cc3C)cc12 (configuration not stated),IkBa stabilization activation,[1],inactive
Cc1cc(OCCCSc2nc(-c3ccc(C(C)(C)C)cc3)nc3cc(=O)[nH]n23)ccc1Cl,IkBa stabilization activation,[1],inactive
COc1cccc(CNC(=O)CC(c2ccc(F)cc2)N2Cc3ccccc3C2=O)c1 (configuration not stated),IkBa stabilization activation,[1],inactive
CC(=O)c1cccc(N2C(=NC(=O)C(C)C)SC3CS(=O)(=O)CC32)c1 (configuration not stated),IkBa stabilization activation,[1],inactive
COCCCn1c2nc3ccccc3nc2c2c(=O)n(Cc3ccccc3Cl)cnc21,IkBa stabilization activation,[1],inactive
Cc1coc2c(C)c3oc(=O)c4c(c3cc12)CCC4,IkBa stabilization activation,[1],inactive
COc1cc(Cl)c(NC(=O)C2CCN(S(=O)(=O)c3c(C)noc3/C=C/c3ccccc3F)CC2)c(OC)c1,IkBa stabilization activation,[1],inconclusive: 0.791% [signal inhibitor]
COc1cccc(NC(=O)CSc2nc3ccc(NC(=O)c4ccco4)cc3s2)c1,IkBa stabilization activation,[1],inactive
COc1ccc(OC)c(NC(=O)Cn2cc(C(=O)c3ccco3)c3ccccc32)c1,IkBa stabilization activation,[1],inconclusive: 4.9% [signal inhibitor]
